Assay results as given in PubChem BioAssay AID1508642 (National Center for Advancing Translational Sciences (NCATS), 2021).
Screen size: about 43,000 compounds; about 200 (0.47%) were called active. Inconclusive results (about 12%) are left out. Calls follow the shape of the dose curve; as a rule, active = well fitted cell-killing curve with a large enough effect; inconclusive = small, poorly fitted or top-dose-only effect, or effect the other way; inactive = flat fitted curve, though single readings scatter. The list shows a part of the results.

Experiment: Cell viability qHTS assay in S16 Pmp22-F2sN cells; also: nearly all actives have a fitted effect of over 65% in size
Conditions: S16 Pmp22-F2sN Schwann cells (luciferase reporters placed in the Pmp22 gene) viability, CellTiter-Glo, 24 h; series mostly up to 57.5 µM; activity change, negative = cytotoxicity: at the top concentration
Description: Assay Provider: Jim Inglese Ph.D. National Center for Advancing Translational Science, National Institutes of Health, Rockville, MD CMT is a heterogeneous group of neurological disorders that affect approximately 1 in 2,500 people. In particular, the most common form of CMT, CMT1A is genetically linked to the duplication of the PMP22 gene which leads to Schwann cell overexpression, thus manifesting itself as a typical case of dose-sensitive diseases. To identify small molecule compounds that can mediate the expression of PMP22 we developed a phenotypic assay screening strategy by utilizing genome editing techniques to construct Schwann cell lines containing novel reporter technology to monitor the transcriptional or translational regulation of PMP22. For high sensitivity we use a bioluminescent reporter system embedded in the 3' UTR of the PMP22 gene (S16(c9) Pmp22-F2sN) to identify compounds that inhibit gene expression. […] We can further discriminate the effect of all transcriptionally active molecules on PMP22 translation or stability with an assay that incorporates a short NLuc peptide (HiBiT) at the C-terminus of expressed PMP22 (S16(f8) PMP22-HiBiT) allowing alpha complementation and luminescence detection of membrane-associated PMP22 protein. These assays were screened against the NCATS Sytravon Library Collection. Miniaturization of these assays to 1536-well plate format for quantitative high throughput screening (qHTS) yielded rich data sets immediately from the qHTS assay (S16(c9) Pmp22-F2sN), when compared with data from a cell viability assay (Cell TiterGlo) to identify compounds that decreased the output signals through cellular toxicity to streamline the selection process of actives for subsequent characterization using the HiBiT assay (S16(f8) PMP22-HiBiT).
Cell viability assay in S16 Pmp22-F2sN cells PROTOCOL TABLE (format as described by Inglese J, Shamu CE and Guy RK. 2007) SEQUENCE No. (e.g., 1, 2, 3, etc.); […] (e.g., Cells, Incubation, Reagent, etc.); VALUE and DESCRIPTION. 1. Cells. Add 500-1,000 cells in 4 uL in growth media (DMEM High Glucose, No Phenol Red media + 10% heat-inactivated FBS + 1% Pen/Strep supplemented media) per well into Greiner 1536-well white/solid bottom high base, TC-treated plates. 2. Compounds. Library compounds and controls added at 23nL per well, transferred by Pin Tool. 3. Incubation. Incubate plates at 37C, 5% CO2, 95% RH for 24 h. 4. Reagent. Add 3uL CellTiter-Glo per well of Greiner 1536-well plates. 5. Incubation. Incubate plates at room temperature for 15 min., protect from light. 6. Detector. FLuc luminescence measured using CCD-based camera (Viewlux). NOTES (numbers refer to Sequence numbers above; values are from representative experiments) 6. Luminescence Read: Clear filter; Exposure = 1 sec, Gain = High, Speed = Slow, Binning = 2X REFERENCES: 1. Inglese J, Shamu CE and Guy RK, Reporting data from high throughput screening of small molecule libraries, Nature Chemical Biology, 2007, 3(8): 438-441. doi.org/10.1038/nchembio0807-438 2. Yasgar A, Shinn P, Jadhav A, Auld DS, Michael S, Zheng W, Austin CP, Inglese J and Simeonov A, Compound Management for Quantitative High-Throughput Screening. J. Assoc. Lab. Auto., 2008, 13: 79-89. doi: 10.1016/j.jala.2007.12.004
% is scaled to controls: 0 for no effect and ±100 for the full control effect.

Row | SMILES | activity change, negative = cytotoxicity
1 | O=C(CCCCCn1c(=O)[nH]c2ccccc2c1=O)NCc1ccccc1 | inactive: 4.49%
2 | O=C(C1CCCN(S(=O)(=O)c2cccc3nsnc23)C1)N1CCN(c2ccccc2Cl)CC1 (centres undefined) | inactive: -15.6%
3 | Cc1cccc(N(C)c2ccc3cc(S(=O)(=O)N4CCCC4)ccc3n2)c1 | inactive: -16.9%
4 | Cc1ccc2c(c1)c(N1CCCC1=O)c(C(=O)Nc1ccc(F)cc1F)n2C | inactive: 4.86%
5 | CCC(=O)N1CCc2cc(S(=O)(=O)NC(Cc3ccccc3)C(=O)Nc3cccc(OC)c3)ccc21 (centres undefined) | inactive: 6.1%
6 | CN(C)c1ccc(NC(=O)Cn2cc(S(=O)(=O)Cc3cccc(Cl)c3)c3ccccc32)cc1 | inactive: 8.28%
7 | Cc1nc2scc(C)n2c(=O)c1S(=O)(=O)N1CCN(c2cccc(C(F)(F)F)c2)CC1 | inactive: -21.4%
8 | Cc1ccc(-c2c(C(=O)Nc3ccccc3F)oc(=O)c3ccccc23)cc1 | inactive: 1.68%
9 | Cc1ccc(C)c(NC(=O)c2oc(=O)c3ccccc3c2-c2ccccc2)c1 | inactive: 4.22%
10 | Cc1cc2nc(-c3ccc(OCc4ccccc4F)cc3)cc(C(F)(F)F)n2n1 | inactive: 25.2%
11 | CCCc1nn2c(=O)cc(COC(=O)c3ccc4c(c3)OCO4)nc2s1 | inactive: 26.6%
12 | CCOC(=O)c1cccc(NC(=O)C2=C(C)C(=O)OC23CCCCC3)c1 | inactive: 6.11%
13 | Cc1ccc(C)c(N2CCN(C(=O)Cn3cnc4nc5c(cc4c3=O)CCCC5)CC2)c1 | inactive: 4.16%
14 | Cn1c(NCCN)nc2c1c(=O)n(Cc1ccccc1)c(=O)n2C | inactive: -23.7%
15 | COc1cccc(C(=O)Nc2nc(-c3nnn(-c4cccc(Cl)c4C)c3C)ns2)c1 | inactive: 29.6%
16 | COc1ccc(NC(=O)Cn2c(=O)n(-c3ccc(OC)cc3)c(=O)c3sc4ccccc4c32)cc1 | inactive: -1.34%
17 | COc1ccc2c(CNCc3ccco3)c(C(=O)O)n(Cc3cccc(F)c3)c2c1 | inactive: -8.07%
18 | COc1ccc(CNc2ncnc3c2c(-c2ccccc2)cn3-c2ccc(C)c(Cl)c2)cc1 | inactive: -2.2%
19 | COc1cc(C(=O)Nc2cc(C)c(O)c(-c3nc4ccccc4s3)c2)cc(OC)c1OC | inactive: -8.59%
20 | CCCN(CCC)C(=O)C1CCN(c2cc(C)nc3c(-c4ccc(Cl)cc4)c(C)nn23)CC1 | inactive: 1.01%
21 | COc1ccc(C(=O)Nc2ccc(-c3nc4ccccc4s3)c(Cl)c2)cc1Cl | inactive: -0.389%
22 | Cn1c(NCCCO)nc2c1c(=O)n(Cc1cccc(F)c1)c(=O)n2C | inactive: 2.71%
23 | Cc1ccc(CC(=O)NCc2nc(-c3ccccc3)no2)cc1 | inactive: 13.9%
24 | O=C(NCCc1ccccc1Cl)c1cc2ccccn2n1 | inactive: -1.53%
25 | COC(=O)c1c(NC(=O)c2cc(=O)c3cc(C)cc(C)c3o2)sc2c1CCC2 | inactive: 4.55%

Row | SMILES | activity change, negative = cytotoxicity
26 | CCOC(=O)c1ccc(NC(=O)c2nc(SCc3ccc(F)cc3)ncc2Cl)cc1 | inactive: 9.9%
27 | Cc1cc(SCC(=O)Nc2ccc(F)cc2F)nc(=O)[nH]1 | inactive: -0.405%
28 | CCCCn1c(=O)c2oc3ccccc3c2n(Cc2ccc(C)cc2)c1=O | inactive: -6.84%
29 | CCOc1ccc2c(c1)NC(c1ccc(OCC)c(OCC)c1)=NC(c1ccc(F)cc1)=N2 | inactive: 2.94%
30 | CCc1ccc(N(CC)C(=O)c2cn(C)c(=O)c3cc(OC)c(OC)cc23)cc1 | inactive: 28.3%
31 | Cc1ccc(S(=O)(=O)NCCc2nnc3ccc(SCC(=O)Nc4c(C)cc(C)cc4C)nn23)cc1 | inactive: 2.07%
32 | CCn1c(CNC(=O)c2ccc(OC)cc2)nnc1SCC(=O)Nc1cccc(C)c1 | inactive: -0.916%
33 | CC(C)(C)C1CCc2c(sc3nc(-c4cc5cc(Cl)ccc5oc4=O)[nH]c(=O)c23)C1 (centres undefined) | inactive: 10.9%
34 | Cc1ccc(NC(=O)Cn2nc(C(F)(F)F)c3c2CCCC3)cc1 | inactive: 3.74%
35 | COc1ccc(NC(=O)CN2C(=O)COc3ccc(S(=O)(=O)NC4CCCC4)cc32)cc1OC | inactive: 11.7%
36 | Cc1cc2c(cc1S(=O)(=O)NCc1ccc(F)cc1)OCC(=O)N2 | inactive: 7.38%
37 | Cc1ccc(-n2ncc3c(NC4CCCCC4)ncnc32)cc1C | inactive: 11.3%
38 | O=C(c1ccccc1)n1nc(-c2ccc(Cl)cc2)nc1NCc1ccco1 | inactive: -16.8%
39 | CSc1ccc(CCNC(=O)Cn2ncc3c([nH]c4ccccc43)c2=O)cc1 | inactive: -1.15%
40 | CCCN(C(=O)c1ccc2c(=O)n3c(nc2c1)CCCCC3)c1cccc(Cl)c1 | inactive: -11.2%
41 | Cc1cc(C)cc(NCc2nnc3n2CCCCC3)c1 | inactive: -1.07%
42 | Cc1ccc2occ(CC(=O)Nc3c(C)cccc3C)c2c1 | inactive: 3.78%
43 | CC(=O)N1CCc2cc(Br)cc(S(=O)(=O)CCC(=O)NCc3ccc(F)cc3)c21 | inactive: 0.233%
44 | O=C(CCNS(=O)(=O)c1ccc2c(c1)CCN2C(=O)C1CC1)Nc1ccc(Cl)cc1 | inactive: -28.3%
45 | COc1ccc(OCC(=O)N2CCN(C(=O)c3ccc(OC)c(OC)c3)CC2)cc1 | inactive: 9.62%
46 | Cc1cccc(C)c1NC(=O)CCSCCc1ccccn1 | inactive: -7.23%
47 | COc1cn(CC(=O)Nc2ccc(C)cc2)c(CN2CCCCC2)cc1=O | inactive: -2.18%
48 | CC(=O)c1ccc(NC(=O)c2sc(-n3nc(C)c(Cc4ccc5c(c4)OCO5)c3C)nc2C)cc1 | inactive: 2.06%
49 | O=c1oc2c(CN3CCOCC3)c(O)ccc2cc1-c1ccccc1 | inactive: 3.72%
